This note sets out measurements from US12274759B2, “Affibody proteins specific for B7-H3 (CD276)” (THE BOARD OF TRUSTEES OF THE LELAND STANFORD JUNIOR …, priority 2018, dated 2025).

For one assay, the target named is T1, soluble B7-H3 (Homo sapiens, UniProt Q5ZPR3).
T1 sequence (Q5ZPR3 29-466): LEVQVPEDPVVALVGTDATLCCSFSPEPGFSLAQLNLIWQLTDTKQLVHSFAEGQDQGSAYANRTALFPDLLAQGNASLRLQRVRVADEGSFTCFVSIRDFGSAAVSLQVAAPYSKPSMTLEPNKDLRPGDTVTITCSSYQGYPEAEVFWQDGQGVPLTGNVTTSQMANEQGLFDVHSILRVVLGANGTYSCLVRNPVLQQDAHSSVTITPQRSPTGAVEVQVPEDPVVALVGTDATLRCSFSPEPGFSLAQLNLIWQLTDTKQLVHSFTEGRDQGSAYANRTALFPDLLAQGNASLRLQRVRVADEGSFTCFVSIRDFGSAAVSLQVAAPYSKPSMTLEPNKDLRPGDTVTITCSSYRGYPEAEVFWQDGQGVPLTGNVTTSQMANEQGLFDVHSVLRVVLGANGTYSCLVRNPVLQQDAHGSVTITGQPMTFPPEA
Kind of assay: Binding of microbubbles to soluble B7-H3 by flow cytometry. Particulars: Example 1; compared to non-targeted MBs. On the procedure:
The affibodyB7-H3-MBs were created by attaching affibodyB7-H3 to the shell of synthesized perfluorobutane-filled phospholipid MBs. Subsequently, the binding of affibodyB7-H3 -MBs to a soluble B7-H3 was assessed by flow cytometry. Non-targeted MBs and anti-B7-H3 antibody-decorated MBs (anti-B7-H3-MBs) were used as controls. All microbubble constructs were then tested for their molecular imaging capabilities in a transgenic breast cancer mouse model (FVB/N-Tg(MMTV-PyMT)634Mul/J).
(In flow cytometry, cells or beads pass a laser one at a time.)

In assay [1] the target is T2, mB7-H3 on neovasculature of mammary tumors (Mus musculus, UniProt Q8VE98).
T2 construct: from tissue; host or cells: mammary tumours and normal mammary glands of FVB/N-Tg(MMTV-PyMT)634Mul mice, in vivo
T2 sequence (Q8VE98 29-316): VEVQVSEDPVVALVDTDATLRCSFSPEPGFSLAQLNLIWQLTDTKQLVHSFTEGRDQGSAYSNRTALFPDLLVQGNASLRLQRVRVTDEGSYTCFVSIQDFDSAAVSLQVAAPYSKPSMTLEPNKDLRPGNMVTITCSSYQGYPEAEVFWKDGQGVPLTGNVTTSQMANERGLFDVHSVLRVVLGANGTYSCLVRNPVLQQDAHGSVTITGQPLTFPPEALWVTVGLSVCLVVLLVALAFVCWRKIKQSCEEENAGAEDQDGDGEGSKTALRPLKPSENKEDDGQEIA
Kind of assay: In vivo ultrasound molecular imaging in transgenic breast cancer mouse model FVB/N-Tg(MMTV-PyMT)634Mul. An excerpt: Shown in FIGS. 5 and 6 are in vivo ultrasound molecular imaging of transgenic breast cancer mouse model (FVB/N-Tg(MMTV-PyMT)634Mul/J) using MB-B7-H3-affibody. All experiments were approved by the Institutional Administrative Panel on Laboratory Animal Care. The transgenic mouse model of breast cancer development FVB/N-Tg(MMTV-PyMT)634Mul was used. The mammary tissue of this transgenic mouse model progresses through four distinct histological stages from normal mammary tissues, through hyperplasia, to ductal carcinoma in situ (DCIS), and finally invasive breast carcinoma which highly recapitulates human breast cancer.
For this study, inguinal mammary glands with invasive breast carcinoma were imaged by USMI (mean age, 7 weeks; range, 4-10 weeks) with 12 mammary tumors). Four control litter mates with normal mammary glands were used as controls. Mice were kept anesthetized with 2% isoflurane in oxygen at 2 Limin on a heated stage for 37° C. throughout the ultrasound imaging sessions. In an intra-animal comparison experiments, molecularly-targeted MBs (5×10^7 MB-B7-H3-affibody, MB-anti-B7-H3-antibody, and MB-Non-targeted) were injected intravenously through the tail vein of mice in random order to minimize any bias. Between imaging sessions using the three different contrast agents, a waiting interval of 30 min was used to allow for clearance of MBs from the vasculature. Also, at 30 min it was confirmed by USMI that no remaining MBs were present from the previous injection. In addition, control litter mates with normal mammary glands were scanned as tumor angiogenesis-negative models after the injection of all MB types to assess the contrast enhancement of non-angiogenic microvasculature. To further confirm binding specificity of molecularly-targeted MBs, an in vivo competition experiment was performed. In a subgroup of breast cancer-bearing mice, in vivo blocking of B7-H3 by injecting 100-150 μg B7-H3-affibody via the tail vein was performed in order to block binding of MB-B7-H3-affibody to its target B7-H3.
All in vivo imaging studies were performed in contrast mode using a small-animal high resolution ultrasound imaging system (Vevo2100; VisualSonics, Canada). Images were acquired with a 21-MHz high-resolution linear transducer (M5250, VisualSonics; lateral and axial resolution of 165 μm and 75 μm, respectively), and all imaging parameters (focal length, 8 mm; transmit power, 10%; mechanical index, 0.2; dynamic range, 40 dB and a center frequency of 18 MHz) were kept constant during all imaging sessions. The transducer was fixed on a railing system to maintain the acoustic focus at the center of the mammary gland at the level of the largest transverse cross section.
In addition, the transgenic mouse model of breast cancer development FVB/N-Tg(MMTV-PyMT)634Mul was used (The Jackson Laboratory) (21). The mammary tissue of this transgenic mouse model progresses through four distinct histological stages from normal mammary tissues, hyperplasia, ductal carcinoma in situ, and finally invasive breast carcinoma which highly recapitulates human breast cancer. For this study, female mice (mean age, 7 weeks; range, 4-10 weeks) with 10 mammary glands with invasive breast carcinoma were imaged with a mean size of 7 mm (range 5-9 mm) by US molecular imaging. The litter mates with normal mammary glands were used as controls,
Ultrasound (US) molecular imaging. Contrast-enhanced US imaging was performed using a dedicated small-animal high resolution US imaging system (Veno 2100; VisualSonics). All mice were kept anesthetized with 2% isoflurane in room air at 2 L/min on a heated stage at 37° C. throughout the US molecular imaging sessions. Image acquisition was performed in the transverse plane using a high-resolution transducer (MS250; center frequency, 18MHz, lateral and axial resolution of 165 μm and 75 μm, respectively; focal length, 8 mm; transmit power, 10%; mechanical index, 0.2; dynamic range, 40 dB). […]

B1: MBABY-B7-H3: contrast microbubbles functionalized with ABYB7-H3 (biotinylated ABY on streptavidin-coated, lipid-shelled perfluorocarbon MB) (conjugate)
chain: AEAKYAKEKIFAVGEIYWLPNLTHGQIMAFIAALNDDPSQSSELLSEAKKLNDSQAPKHHHHHH
Consider B1, for which the “binding to soluble B7-H3, in vitro flow analysis” value with soluble B7-H3 is on record as “high-affinity binding”. Moreover, in assay [1] (Example 1), the “binding to normal breast tissue, in vivo ultrasound imaging (FIG. 6)” value is recorded as “do not bind”. Besides, the “targeted imaging signal in transgenic mice with breast tumors” value in assay [1] (Example 1, 5×10^7 MB intravenously, 12 mammary tumors) is listed as 5.45±1.18 a.u. Also, the “decrease of imaging signal after in vivo blocking of B7-H3 receptors with free B7-H3-affibody” value in assay [1] (Example 1, 100-150 μg B7-H3-affibody via tail vein, compared to tumors without blocking agent) is given as around 60%. Also, the “imaging signal in normal mice mammary glands” value in assay [1] (Example 1, control litter mates with normal mammary glands) is listed as 1.26±0.37 a.u. Moreover, the “in vivo ultrasound molecular imaging signal of tumors” value in assay [1] (Example 1, tumors n=9) was 4.92±1.12 a.u. Also, the “US molecular imaging signal from mammary tumors of transgenic mice” value in assay [1] (Example 3, MMTV-PyMT, 5×10^7 MB intravenously) stood at 9.6±2.0 a.u. In assay [1] (Example 3, age-matched control littermates), the “US imaging signal in normal mammary gland” value is 2.3±0.5 a.u. Besides, the “US molecular imaging signal from tumors after in vivo blocking of mB7-H3 receptors” value in assay [1] (Example 3, free ABY (150 μg) 24 hours prior to imaging, n=5) is listed as 0.4±0.2 a.u. In addition, the “US molecular imaging signal from tumors before blocking” value in assay [1] (Example 3, same animals imaged before blocking, n=5) stood at 4.3±1.0 a.u.
